About 230 (0.21%) of roughly 110,000 compounds showed an effect of 50% or more. Some of the results follow.
target: DPAP1 (Plasmodium falciparum, UniProt Q8IIJ9); assay: primary screen, percent inhibition; read by cleavage of a fluorogenic dipeptide substrate; higher = more effect of the substance; parameters: species or system P. falciparum D10 trophozoite lysates; single well
Description: HTS was performed in black 384-well plates. The first and last two columns of each plate contained our negative (DMSO) and positive (10 μM JCP410) controls, and the 20 central columns the test compounds at 10 μM. Compounds were first diluted 50-fold into assay buffer (50 mM sodium acetate, 5 mM MgCl2, 10 mM β-mercaptoethanol, and 0.1% CHAPS, pH 5.5) from a 10 mM DMSO stock plates. One microliter of this 200 μM intermediate stock plate was dispensed into the assay plate. […] After 30 min, the reaction was quenched with 20 μL of 0.5 M acetic acid, and the fluorescent intensity measured at 523 nm (λex = 492 nm) using an Analyst HT multimode plate reader (Molecular Devices).
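Note: 30 min substrate incubation versus DMSO and 10 µM JCP410 controls.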

Chain of DPAP1 (Q8IIJ9 whole entry, looked up): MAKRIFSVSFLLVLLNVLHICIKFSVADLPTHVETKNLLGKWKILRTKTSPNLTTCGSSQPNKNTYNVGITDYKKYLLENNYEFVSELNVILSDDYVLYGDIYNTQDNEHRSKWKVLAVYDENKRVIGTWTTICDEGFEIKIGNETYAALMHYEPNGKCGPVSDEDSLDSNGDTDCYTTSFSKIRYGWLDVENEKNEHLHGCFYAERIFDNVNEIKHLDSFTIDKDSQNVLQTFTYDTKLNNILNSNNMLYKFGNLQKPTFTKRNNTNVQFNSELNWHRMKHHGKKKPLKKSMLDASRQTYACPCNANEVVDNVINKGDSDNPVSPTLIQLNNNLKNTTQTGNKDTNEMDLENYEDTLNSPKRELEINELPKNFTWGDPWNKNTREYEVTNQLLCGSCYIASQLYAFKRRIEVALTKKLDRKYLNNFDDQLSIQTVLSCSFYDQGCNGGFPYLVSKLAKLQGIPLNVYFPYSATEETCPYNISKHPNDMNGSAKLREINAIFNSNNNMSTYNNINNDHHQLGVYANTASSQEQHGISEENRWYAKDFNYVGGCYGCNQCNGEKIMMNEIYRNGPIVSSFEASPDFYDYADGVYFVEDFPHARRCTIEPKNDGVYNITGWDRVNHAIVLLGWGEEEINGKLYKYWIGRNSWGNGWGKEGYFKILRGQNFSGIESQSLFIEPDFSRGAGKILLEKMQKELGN

Going from Cc1cc(C)c(CN2C(=O)c3ccccc3C2=O)c(C)c1 to Cc1ccc(-c2csc(-c3cc4ccccc4oc3=O)n2)cc1, the “% Inhibition @ 10 uM” value falls from 4.32% to -4.21%.

First: Cc1oc(-c2cccc(Cl)c2)nc1CN1CCCC(C(=O)NCc2cccs2)C1 (stereo not drawn)
Second: COc1ccc(Cn2c(C(=O)O)c(CNC3CCCCCC3)c3ccc(C)cc32)cc1
The “% Inhibition @ 10 uM” value of the first is lower: -8.65% for the first, -0.537% for the second.

First: CCOc1ccc(C2c3c(-c4ccccc4O)n[nH]c3C(=O)N2CCO)cc1 (stereo not drawn)
Second: COCCN1C(=O)c2ccccc2C(C(=O)Nc2cccc(C)n2)C1c1ccc(F)cc1 (stereo not drawn)
The “% Inhibition @ 10 uM” value of the first is lower: -4.95% for the first, 2.06% for the second.

First: C=CCNC(=O)c1ccccc1NC(=O)c1ccco1
Second: C=CCN(C(=O)Nc1ccc2oc(C)nc2c1)c1ccccc1
The “% Inhibition @ 10 uM” value of the first is higher: 0.512% for the first, -6.41% for the second.

Going from Nn1c(S)nnc1-c1ccccc1 to N=c1nc(N)nc(Nc2ccccc2)n1-c1ccccc1, the “% Inhibition @ 10 uM” value rises from 1.63% to 6.4%.

Compared with Cc1ccccc1CN1CCN(CC(=O)NCC2CCCO2)C1=O (stereo not drawn), Clc1ccccc1COc1ccccc1CNCC1CCCO1 (stereo not drawn) is higher in “% Inhibition @ 10 uM” value: -5.67% for the first, 0.163% for the second.

First: O=C1c2oc3ccccc3c(=O)c2C(c2ccc(F)cc2)N1c1nccs1 (stereo not drawn)
Second: O=c1oc2ccccc2n1Cc1ccc(F)cc1Cl
The “% Inhibition @ 10 uM” value of the first is lower: -8.95% for the first, 4% for the second.

Compared with C1=C(c2ccc(-c3ccccc3)cc2)N2CCCCN=C2S1, Cc1ccccc1CN1CCN(c2ccc(F)cc2)CC1 is higher in “% Inhibition @ 10 uM” value: -4.68% for the first, -3.56% for the second.

First: CC(C)C[C@H](NC(=O)OCc1ccccc1)C(=O)N[C@H](/C=C/[N+](=O)[O-])CCc1ccccc1
Second: CCc1nnc(C(=O)[C@H](CC)NC(=O)[C@H](C[C@H](C)c2ccccc2)NC(=O)c2ccc(-c3ccccc3Cl)nc2)o1
The “% Inhibition @ 10 uM” value of the first is higher: 0.744% for the first, -1.82% for the second.

Compared with CN1C(=O)C2Cc3c([nH]c4ccccc34)C(c3cccc(Cl)c3Cl)N2C1=S (stereo not drawn), Cc1[nH]c2ccccc2c1C(=O)/C=C/c1ccccc1 is lower in “% Inhibition @ 10 uM” value: 4.89% for the first, 3% for the second.

Compared with Cc1ccc(S(=O)(=O)NCCc2nnc3ccc(SCC(=O)N4CCOCC4)nn23)cc1, CC(C)NS(=O)(=O)c1ccc(CCC(=O)Nc2ccc3c(c2)OCCO3)cc1 is higher in “% Inhibition @ 10 uM” value: -7.14% for the first, -3.92% for the second.

First: Fc1ccc(N2CCN(Cc3cccc(F)c3)CC2)cc1
Second: O=[N+]([O-])c1ccc(Cl)cc1CN1CCN(c2cccc(C(F)(F)F)c2)CC1
The “% Inhibition @ 10 uM” value of the first is higher: 1.48% for the first, -0.197% for the second.

First: NC1=NC(=O)/C(=C/c2cc(Br)ccc2OCc2ccccc2)S1
Second: COc1cc(CNc2ccc(C(=O)O)cc2)ccc1OCc1ccccc1
The “% Inhibition @ 10 uM” value of the first is higher: 4.1% for the first, -0.95% for the second.

First: CC1=C(C(N)=O)C(c2ccc(O)cc2)n2nc(-c3cccc(C)c3)nc2N1 (stereo not drawn)
Second: CCOC(=O)c1sc(N2C(=O)C(O)=C(C(=O)c3ccco3)C2c2ccc(OC)c(OC)c2)nc1C (stereo not drawn)
The “% Inhibition @ 10 uM” value of the first is lower: -1.47% for the first, -1.25% for the second.

First: O=C(CC(C(=O)O)N1CCOCC1)c1ccccc1 (stereo not drawn)
Second: CCCCN(C)C1CCN(Cc2ccccc2)CC1
The “% Inhibition @ 10 uM” value of the first is higher: 34.3% for the first, -4.14% for the second.

Compared with CC1(C)CC2=Nc3ccccc3NC(c3cccc(O)c3O)C2=C(O)C1 (stereo not drawn), Cc1cccc(NC(=O)Cc2cccc3ccccc23)c1C is lower in “% Inhibition @ 10 uM” value: -2.78% for the first, -3.03% for the second.

Compared with CN(CCCNC(=O)Cn1ncc2c3ccccc3n(Cc3ccccc3)c2c1=O)Cc1ccccc1, CCCn1c2ccccc2c2cnn(CC(=O)Nc3ccc(NC(C)=O)nc3)c(=O)c21 is higher in “% Inhibition @ 10 uM” value: -1.58% for the first, 0.721% for the second.

Going from Cc1cccc(Oc2nc3c(C)cccn3c(=O)c2/C=C(\C#N)C(=O)NC2CCS(=O)(=O)C2)c1C (stereo not drawn) to COCCNC(=O)c1cnn2c(C)c(Cc3ccccc3Cl)c(C)nc12, the “% Inhibition @ 10 uM” value falls from 0.315% to -2.14%.

Going from CC1=C(C(=O)OCC(C)C)C(c2ccc(F)cc2)NC(=O)N1 (stereo not drawn) to Cc1cc(/C=C2\SC(=O)NC2=O)c(C)n1-c1ccc(C(=O)O)cc1, the “% Inhibition @ 10 uM” value rises from -3.35% to 8.37%.

First: COc1cccc(CN2CCC(Cc3ccccc3)CC2)c1
Second: COc1ccc(S(=O)(=O)c2c(-c3ccccc3)cn3ccccc23)cc1
The “% Inhibition @ 10 uM” value of the first is higher: 3.25% for the first, -2.96% for the second.

Going from CCOC(=O)c1cn(CC)c2cc(N3CCCCC3)c(F)cc2c1=O to CCOC(=O)N1CCN(c2cc(N3CCOCC3)c(F)cc2[N+](=O)[O-])CC1, the “% Inhibition @ 10 uM” value falls from 2.16% to -2.48%.

First: Cc1cccc(-n2ncc3c(NCCCn4ccnc4)ncnc32)c1
Second: Cc1cccc(OP(=O)(Nc2cccnc2)Oc2cccc(C)c2)c1
The “% Inhibition @ 10 uM” value of the first is higher: 11% for the first, -1.03% for the second.

Compared with Cc1nnc(NC(=O)CSc2nnc(Cc3cccn3C)n2C)s1, CCC(C)c1ccc(NC(=O)c2cn(C)nc2C)cc1 (stereo not drawn) is lower in “% Inhibition @ 10 uM” value: -2.45% for the first, -2.99% for the second.

First: COc1ccc(C2=NOC(C(=O)NCCCN3CCOCC3)C2)cc1 (stereo not drawn)
Second: CCN1CCN(C(=O)Nc2cn(C)c(=O)c3ccccc23)CC1
The “% Inhibition @ 10 uM” value of the first is lower: -3.45% for the first, -0.0579% for the second.

Compared with CC(C)=CCC12CN3CCN(CC(C3)C1O)C2 (stereo not drawn), Oc1ccc(N2CCCCC2)nn1 is higher in “% Inhibition @ 10 uM” value: -3.64% for the first, 2.39% for the second.

Going from CCN(CC)c1ccc(C(=O)NC(CCC(C)C)C(=O)NCC#N)cc1 (stereo not drawn) to CSc1ccc(-c2cccc(C(=O)N[C@@H](CC(C)C)C(=O)NCC#N)c2)cc1, the “% Inhibition @ 10 uM” value falls from -5.64% to -10.7%.

Going from Cc1cccc(NC(=O)CN(c2ccc(Cl)cc2C)S(C)(=O)=O)c1 to Cc1ccc(S(=O)(=O)N(CC(=O)NC(C)(C)C)c2cc(Cl)ccc2C)cc1, the “% Inhibition @ 10 uM” value rises from -5.99% to 4.25%.

Compared with COCC(C)NC(=O)C1=CC(c2ccco2)=NS(=O)(=O)N1C (stereo not drawn), CCCNC(=O)c1ccc2[nH]c(C)c(C)c2c1 is lower in “% Inhibition @ 10 uM” value: 2.32% for the first, -4.71% for the second.

First: Cc1cc(NS(=O)(=O)c2ccc(NC(=O)Nc3ccc(Cl)cc3)cc2)no1
Second: O=[N+]([O-])c1ccccc1S(=O)(=O)n1ccnc1
The “% Inhibition @ 10 uM” value of the first is lower: 2.42% for the first, 4.54% for the second.

Compared with CC1CCC2(CC1)N=C(c1ccc(Cl)cc1Cl)C(=O)N2 (stereo not drawn), N#CC1C(=O)NC(=O)C([n+]2ccccc2)C1c1ccccc1 (stereo not drawn) is lower in “% Inhibition @ 10 uM” value: 1.16% for the first, 0.746% for the second.

Going from O=[N+]([O-])c1ccccc1N1CCCCC1 to CC1(C)Cc2c(c(N3CCOCC3)nc3sc4c(SCCc5ccccc5)ncnc4c23)CO1, the “% Inhibition @ 10 uM” value falls from -6.27% to -7.8%.

In the case of CCc1c(O)n2c(nc1=O)SCCC2, the “% Inhibition @ 10 uM” value is reported as 3.61%.

Reference: PMC6919601, “Identification of Plasmodium dipeptidyl aminopeptidase allosteric inhibitors by high throughput screening” (PLoS ONE, 2019)
